The values that follow come from the antibiotic and cytotoxicity screens of Wong et al. (2023).

For assay [1], the system named is HSkMC (human skeletal muscle cells). Nature of the assay: cytotoxicity call (relative viability < 0.9). To be noted: 10 µM.
Assay [2] deals with HepG2. Nature of the assay: cytotoxicity call (relative viability < 0.9). To be noted: 10 µM.
The test system of assay [3] is S. aureus RN4220. Nature of the assay: growth inhibition call (relative growth <= 0.2). The settings on record: 50 µM.

The other results are listed elsewhere or left out.

Consider `O=C(CN1CCOCC1)NCC[C@H]1CC[C@@H](NS(=O)(=O)c2ccc(F)cc2)[C@@H](CO)O1`, for which the cytotoxicity call in assay [1] and in assay [2] was “inactive” in each case. In assay [3], the growth inhibition call is “inactive”.

Regarding `C[C@H](CO)N1C[C@H](C)[C@@H](CN(C)Cc2ccc(C(=O)Nc3ccccc3N)cc2)Oc2ccc(NS(=O)(=O)c3ccc(Cl)cc3)cc2C1=O`, the cytotoxicity call in assay [1] and in assay [2] was “inactive” in each case. For the same molecule, in assay [3], the growth inhibition call was “inactive”.

Take `NS(=O)(=O)c1ccc(F)c(C(=O)O)c1`: the cytotoxicity call in assay [1] and in assay [2] was “inactive” in each case. The growth inhibition call in assay [3] is “inactive”.

For the molecule `CSCCC(NC(=O)C(Cc1c[nH]c2ccccc12)NC(=O)CCNC(=O)OC(C)(C)C)C(=O)NC(CC(=O)O)C(=O)NC(Cc1ccccc1)C(N)=O` (stereo unspecified), the cytotoxicity call in assay [1] and in assay [2] was “inactive” each time. Further, in assay [3], the growth inhibition call was “inactive”.

As to `C[C@@H]1CCCCO[C@@H](CN(C)S(=O)(=O)c2ccc(F)cc2)[C@@H](C)CN([C@H](C)CO)C(=O)c2cc(NC(=O)Nc3ccc(F)cc3)ccc2O1`, the cytotoxicity call in assay [1] and in assay [2] was “inactive” each time. Besides, the growth inhibition call in assay [3] is “inactive”.

`O=C(C[C@@H]1CC[C@H]2[C@@H](COC[C@H](O)CN2S(=O)(=O)c2ccccc2Cl)O1)NCc1ccccc1Cl`: the cytotoxicity call in assay [1] and in assay [2] was “inactive” in each case. Moreover, in assay [3], the growth inhibition call was “inactive”.

Regarding `CN(C)c1ccc([C@@H](CN)N2CCc3ccccc3C2)cc1`, the cytotoxicity call in assay [1] and in assay [2] was “inactive” throughout. Moreover, the growth inhibition call in assay [3] was “inactive”.

Take `C[C@H](CO)N1C[C@H](C)[C@H](CN(C)C(=O)Nc2ccc3c(c2)OCO3)Oc2ccc(NC(=O)c3ccncc3)cc2C1=O`: the cytotoxicity call in assay [1] and in assay [2] was “inactive” throughout. In assay [3], the growth inhibition call was “inactive”.

In the case of `C[C@H]1CN([C@@H](C)CO)C(=O)Cc2cc(NS(=O)(=O)c3ccccc3)ccc2O[C@@H]1CN(C)CC1CC1`, the cytotoxicity call in assay [1] and in assay [2] was “inactive” throughout. For the same molecule, the growth inhibition call in assay [3] was “inactive”.

Regarding `CC(C)NC(=O)Nc1ccc2c(c1)C(=O)N([C@@H](C)CO)C[C@H](C)[C@@H](CN(C)Cc1ccc(C(F)(F)F)cc1)OCCCC[C@@H](C)O2`, the cytotoxicity call in assay [1] is “inactive”. In addition, the cytotoxicity call in assay [2] is “active”. Moreover, in assay [3], the growth inhibition call was “inactive”.

For the molecule `C[C@@H]1CN([C@H](C)CO)C(=O)c2cc(NC(=O)Cc3ccccc3)ccc2O[C@@H](C)CCCCO[C@H]1CN(C)C(=O)CCC(F)(F)F`, the cytotoxicity call in assay [1] and in assay [2] was “inactive” throughout. Also, the growth inhibition call in assay [3] was “inactive”.

On to `Cc1ccc(/C=c2\sc3ncnn3c2=O)o1`, for which the cytotoxicity call in assay [1] and in assay [2] was “inactive” each time. In addition, the growth inhibition call in assay [3] is “inactive”.

For `C[C@@H]1CN([C@H](C)CO)C(=O)c2cc(C#CC3(O)CCCC3)cnc2O[C@@H]1CN(C)C(=O)Cc1ccccc1`, the cytotoxicity call in assay [1] and in assay [2] was “inactive” each time. The growth inhibition call in assay [3] was “inactive”.

For the molecule `CC(C)NC(=O)Nc1ccc2c(c1)C(=O)N([C@H](C)CO)C[C@@H](C)[C@H](CN(C)Cc1ccc(C(F)(F)F)cc1)OCCCC[C@@H](C)O2`, in assay [1], the cytotoxicity call is “inactive”. For the same molecule, the cytotoxicity call in assay [2] is “active”. The growth inhibition call in assay [3] was “inactive”.

As for `C[C@@H]1CN([C@H](C)CO)C(=O)c2cc(NC(=O)Nc3cccc4ccccc34)ccc2O[C@H]1CN(C)Cc1ccc(Oc2ccccc2)cc1`, in assay [1], the cytotoxicity call was “inactive”. Also, in assay [2], the cytotoxicity call is “active”. In assay [3], the growth inhibition call is “inactive”.

On to `C[C@@H]1CN([C@H](C)CO)C(=O)Cc2cc(NS(C)(=O)=O)ccc2O[C@H]1CN(C)S(=O)(=O)c1ccc(F)cc1`, for which the cytotoxicity call in assay [1] and in assay [2] was “inactive” throughout. Further, the growth inhibition call in assay [3] was “inactive”.

Regarding `Cc1ccc(S(=O)(=O)N(C)C[C@H]2OCCCC[C@@H](C)Oc3ccc(NC(=O)Nc4ccc(F)cc4)cc3C(=O)N([C@H](C)CO)C[C@H]2C)cc1`, the cytotoxicity call in assay [1] and in assay [2] was “inactive” in each case. The growth inhibition call in assay [3] was “inactive”.

`C[C@H](CO)N1C[C@H](C)[C@H](CN(C)C(=O)Nc2ccc(F)cc2)OCc2ccccc2-c2ccccc2C1=O`: the cytotoxicity call in assay [1] and in assay [2] was “inactive” each time. Besides, the growth inhibition call in assay [3] is “inactive”.

Take `C[C@@H]1CCCCO[C@@H](CN(C)S(C)(=O)=O)[C@H](C)CN([C@@H](C)CO)C(=O)c2cc(NS(=O)(=O)c3cn(C)cn3)ccc2O1`: the cytotoxicity call in assay [1] and in assay [2] was “inactive” in each case. In assay [3], the growth inhibition call was “inactive”.

Turning to `C[C@H](CO)N1C[C@H](C)[C@@H](CN(C)Cc2ccc(Oc3ccccc3)cc2)Oc2ccc(NC(=O)NC3CCCCC3)cc2C1=O`, in assay [1], the cytotoxicity call is “inactive”. Further, the cytotoxicity call in assay [2] was “active”. In assay [3], the growth inhibition call was “inactive”.

As for `CNC[C@H]1OCCCC[C@H](C)Oc2ccc(NS(=O)(=O)c3cn(C)cn3)cc2C(=O)N([C@H](C)CO)C[C@@H]1C`, the cytotoxicity call in assay [1] and in assay [2] was “inactive” in each case. The growth inhibition call in assay [3] is “inactive”.

As to `Nc1nc(C(F)(F)F)ncc1C(=O)O`, the cytotoxicity call in assay [1] and in assay [2] was “inactive” throughout. Further, the growth inhibition call in assay [3] is “inactive”.

`C[C@@H]1CCCCO[C@@H](CN(C)C(=O)Nc2ccccc2)[C@H](C)CN([C@H](C)CO)C(=O)c2cc(NC(=O)Nc3ccc(F)cc3)ccc2O1`: the cytotoxicity call in assay [1] and in assay [2] was “inactive” throughout. Further, in assay [3], the growth inhibition call was “inactive”.

For the molecule `Cc1noc(C)c1NC(=O)N(C)C[C@H]1OCCCC[C@H](C)Oc2ccc(NC(=O)C3CCCCC3)cc2C(=O)N([C@@H](C)CO)C[C@@H]1C`, the cytotoxicity call in assay [1] and in assay [2] was “inactive” in each case. Also, in assay [3], the growth inhibition call is “inactive”.

As to `C[C@@H]1CCCCO[C@@H](CN(C)C(=O)Nc2ccc(C(F)(F)F)cc2)[C@H](C)CN([C@@H](C)CO)C(=O)c2cc(NS(=O)(=O)c3cn(C)cn3)ccc2O1`, the cytotoxicity call in assay [1] and in assay [2] was “inactive” in each case. Also, the growth inhibition call in assay [3] was “active”.

`Cc1noc(C)c1S(=O)(=O)Nc1ccc2c(c1)C(=O)N([C@@H](C)CO)C[C@H](C)[C@@H](CN(C)C)OCCCC[C@H](C)O2`: the cytotoxicity call in assay [1] and in assay [2] was “inactive” each time. For the same molecule, the growth inhibition call in assay [3] was “inactive”.

Regarding `O=C(C[C@H]1C[C@@H]2c3cc(NS(=O)(=O)c4ccc(F)cc4)ccc3O[C@@H]2[C@@H](CO)O1)NC1CCCCC1`, the cytotoxicity call in assay [1] and in assay [2] was “inactive” throughout. Besides, the growth inhibition call in assay [3] is “inactive”.
